A word on the % Inhibition: it is the change of the read-out against control, counted positive when it falls.

About 540 (0.36%) of roughly 150,000 compounds showed an effect of 50% or more. This is one part of the list.

Consider 54 compounds from ChEMBL document CHEMBL4888484, “Replenishing the malaria drug discovery pipeline: Screening and hit evaluation of the MMV Hit Generation Library 1 (HGL1) against asexual blood stage Plasmodium falciparum ,using a nano luciferase reporter read-out” (2022).

The assay relates to Plasmodium falciparum. Nature of the assay: Primary screen in NF54 nanoGlo assay, in single point, at 2uM, 72h; a lower Z score goes with more inhibition. Type of assay: functional, Erythrocyte. The conditions noted are these: timepoint 72 hour.
For the compound `CN(C(=O)C1CCCCC1)c1ccc(NC(=O)C2CCCCC2)cc1Cl`, the “% Inhibition” value is reported as 2% and the Z score is on record as -0.5.

For the compound `Cc1ccccc1-c1nnsc1C(=O)N1CC2(CCC2)OC[C@@H]1C`, the “% Inhibition” value is -14% and the Z score amounted to 1.41.

For the compound `CC(C)n1cnc(C(=O)OC[C@H]2CCOC2)c1`, the “% Inhibition” value was -9% and the Z score is listed as 1.09.

For the compound `CCN1CCC[C@H](CNCc2ccccc2OCc2cccnc2)C1`, the “% Inhibition” value worked out at 12% and the Z score was -1.54.

In the case of `c1ccc2c(c1)OC[C@H](CNCc1nc3c(s1)CCC3)O2`, the “% Inhibition” value is given as -17% and the Z score turned out to be 1.47.

In the case of `CC[C@@]1(C)COCCN1C(=O)c1ccoc1Br`, the “% Inhibition” value was -14% and the Z score was 2.28.

With `NC(=O)c1cncc(-c2cccc3cnccc23)n1`, the “% Inhibition” value was -5% and the Z score is listed as 0.94.

In the case of `CCCCOC(=O)Nc1ccc(C)c(Cl)c1`, the “% Inhibition” value is -12% and the Z score is on record as 1.55.

`Cc1cc(C2CCC2)nc(N2C[C@@H](CN(C)C)[C@@H](CO)C2)n1`: the “% Inhibition” value is recorded as -1% and the Z score is on record as 0.17.

Consider `CCCCC(=O)N[C@]1(C(F)(F)F)C(=O)N(Cc2ccccc2)C(C)=C1C(=O)c1ccccc1`, for which the “% Inhibition” value is reported as -12% and the Z score is 1.82.

As to `Cc1cc(NC(=O)CN2CCc3nc(NC(=O)c4cnccn4)sc3C2)no1`, the “% Inhibition” value was -9% and the Z score was 1.48.

For `Cc1csc(NC(=O)c2csc(NC3CC3)n2)n1`, the “% Inhibition” value is listed as -5% and the Z score stood at 0.97.

Turning to `Cn1c(OC2COC2)nc2ccccc21`, the “% Inhibition” value was 0% and the Z score was determined as 0.05.

In the case of `Cc1ccccc1NC(=O)C1CN(S(=O)(=O)C2CC2)C1`, the “% Inhibition” value was -7% and the Z score was found to be 1.08.

Regarding `CCOc1ccc(S(=O)(=O)N2CCN(Cc3nc(-c4ccccc4OC)oc3C)CC2)cc1`, the “% Inhibition” value is -12% and the Z score came out at 1.62.

In the case of `Cc1cnc(C(=O)NCc2ccccc2CN2CCOCC2)cn1`, the “% Inhibition” value was -3% and the Z score worked out at 0.47.

`CN(Cc1cccs1)C(=O)C1CCC(NC(=O)OC(C)(C)C)C1` (stereo not drawn): the “% Inhibition” value stood at 1% and the Z score is listed as -0.21.

Consider `Cc1cc(C)n(CCO[C@@H]2CCCCO2)n1`, for which the “% Inhibition” value is given as -16% and the Z score was found to be 2.2.

Consider `COCCN1CCN(c2nc(-c3cc(F)ccc3F)c3c(N)n(Cc4ccccc4)nc3n2)CC1`, for which the “% Inhibition” value is -1% and the Z score stood at 0.13.

For the compound `CCCCS(=O)(=O)N[C@@H](C)c1ccc(C#N)cc1`, the “% Inhibition” value is recorded as -4% and the Z score was found to be 0.75.

As to `CCc1ccc(S(=O)(=O)N2CCC3(CC2)c2cccn2-c2ccc(C)cc2N3CC)cc1`, the “% Inhibition” value is reported as -2% and the Z score was 0.28.

Turning to `COc1cc(OC)cc(-c2nc(-c3ccc(Oc4ccc(NC(C)=O)cc4)cc3)no2)c1`, the “% Inhibition” value came to 13% and the Z score is on record as -1.43.

Consider `COC(=O)C[C@@H](c1cccnc1)c1cc2c(cc1O)OCO2`, for which the “% Inhibition” value is -1% and the Z score worked out at 0.13.

As for `Cn1ccnc1[C@H](CCc1ccccc1)OC(=O)C1CCCCC1`, the “% Inhibition” value was 4% and the Z score is -0.41.

In the case of `CC1CC(c2ccccc2)C(C)N1C(=O)c1ccnn1CC(F)F` (stereo not drawn), the “% Inhibition” value was found to be 5% and the Z score is listed as -0.62.

Consider `Cc1nc(CC(=O)NCCc2nc3c(s2)CCC3)cs1`, for which the “% Inhibition” value is reported as 3% and the Z score was -0.41.

For `O=C(Cc1ccsc1)NCc1nnc2cc(C(F)(F)F)ccn12`, the “% Inhibition” value was 23% and the Z score is reported as -2.89.

On to `CN1CCC[C@@H]1CCNc1nccc(-c2cnn(-c3ccccc3)c2)n1`, for which the “% Inhibition” value is -3% and the Z score is given as 0.44.

Turning to `CC(C)=CCO[C@H]1CCOC[C@H]1NC(=O)c1ccc(-n2cnnc2)nc1`, the “% Inhibition” value is given as 15% and the Z score was -2.07.

In the case of `COc1ncccc1C(=O)N[C@@H](C)Cn1cncn1`, the “% Inhibition” value was -6% and the Z score was 1.1.

With `Nc1nccnc1C(=O)Nc1ccc(-c2cn3c(n2)CCCC3)cc1`, the “% Inhibition” value was -4% and the Z score is recorded as 0.57.

As for `c1cc(-c2ccn(Cc3nccs3)n2)cc(-c2nccc3occc23)c1`, the “% Inhibition” value is -6% and the Z score turned out to be 1.04.

On to `CCN(C(=O)c1ccc(-c2cc(OC)nc(N)n2)cc1)[C@H]1COC[C@@H]1O`, for which the “% Inhibition” value is given as -17% and the Z score was determined as 1.54.

As for `Cc1nc(C(C)C)oc1C(=O)N1CC[C@H](c2nnc[nH]2)C1`, the “% Inhibition” value is reported as -1% and the Z score was found to be 0.09.

Consider `CCc1nnc2c(NC(=O)Cc3ccccc3Cl)cccn12`, for which the “% Inhibition” value was -11% and the Z score is given as 1.76.

As to `C=CCOc1ccc2c(c1)c(S(=O)(=O)c1ccc(C)cc1)cn2COC`, the “% Inhibition” value was -14% and the Z score was determined as 2.23.

For `CC(C)Oc1ccc2nnc(CCC(=O)N3CCOCC3)n2n1`, the “% Inhibition” value was -3% and the Z score was found to be 0.48.

For the compound `Cc1nn(CCO)cc1CN(C)Cc1cscn1`, the “% Inhibition” value is 9% and the Z score is listed as -1.14.

For `Cc1nn(C)c(C)c1NC(=O)CNC(=O)[C@H]1CCCN(C(=O)c2cccc3ccccc23)C1`, the “% Inhibition” value is -2% and the Z score is reported as 0.32.

For the compound `Cc1cccnc1[C@H](C)NC(=O)c1ccc(NC(=O)c2ccoc2C)cc1`, the “% Inhibition” value was 23% and the Z score is -2.94.

Take `Cc1ccncc1S(=O)(=O)N(C)C1CCN(C(C)C)CC1`: the “% Inhibition” value is -2% and the Z score was found to be 0.2.

In the case of `CC[C@H]1CC[C@H](C(=O)N2CCOC[C@@H]2CC(=O)O)CC1`, the “% Inhibition” value came out at 1% and the Z score is given as -0.13.

For `C[C@H](NC(=O)C1CC=CCC1C(=O)N1CCOCC1)c1ccccc1` (stereo partly drawn), the “% Inhibition” value was 3% and the Z score was -0.51.

Consider `Cn1c(C(=O)N2CCC[C@H](C(=O)O)C2)ccc1-c1ccc(F)cc1`, for which the “% Inhibition” value stood at 4% and the Z score is recorded as -0.52.

For `Cc1ccc(NC[C@H]2CCN(CC(=O)N(C)c3nccs3)C2)nc1`, the “% Inhibition” value was 0% and the Z score is recorded as 0.04.

As to `Cc1cc(C(=O)Nc2nnc(C3(c4ccccc4)CC3)s2)no1`, the “% Inhibition” value was -9% and the Z score is recorded as 1.45.

In the case of `CN1C[C@H](NC(=O)c2cnccn2)CCC[C@@H](C(=O)N(C)Cc2cccnc2)CC1=O`, the “% Inhibition” value was 5% and the Z score is listed as -0.62.

For the compound `O=C(c1cccnn1)N1CCC([C@@H](O)CCc2ccccc2)CC1`, the “% Inhibition” value was -4% and the Z score came out at 0.79.

Take `COc1ccccc1-n1c(=O)n(C2CCCC2)c(=O)c2c1ncn2Cc1ccccc1Cl`: the “% Inhibition” value is on record as 37% and the Z score was -4.79.

As to `CCNc1ncc(CN2C[C@@H]3CC[C@H]2CN(Cc2c(C)noc2C)C3)cn1`, the “% Inhibition” value was -8% and the Z score came out at 1.16.

As for `O=C(Nc1ccc(F)cn1)N[C@H]1CCCc2occc21`, the “% Inhibition” value is -5% and the Z score turned out to be 0.65.

In the case of `Cc1ccc(-c2nnc(NC(=O)c3ccc(=O)[nH]n3)[nH]2)o1`, the “% Inhibition” value is -14% and the Z score was 1.7.

In the case of `O=C(c1ccccc1F)N1CCc2nc(N3CCCCC3)nc(N3CCOCC3)c2C1`, the “% Inhibition” value was -2% and the Z score is listed as 0.25.

For `CC(NCc1cc[nH]n1)C(C)n1cccn1` (stereo not drawn), the “% Inhibition” value is listed as -11% and the Z score is on record as 1.11.
